Measurements from PubChem BioAssay AID493208 (National Center for Advancing Translational Sciences (NCATS), 2011).
In all, about 44,000 compounds went through this assay and about 340 (0.77%) were called active. Not shown: some 5% with an inconclusive outcome. Calls come from the whole dose curve; as a rule, active = well fitted inhibition curve with a large enough effect; inconclusive = small, poorly fitted or top-dose-only effect; inactive = flat fitted curve, though single readings scatter. Some of the results follow.

experiment: Acumen qHTS Assay for Inhibitors of the mTORC1 Signaling Pathway in MEF (Tsc2-/-, p53-/-) Cells: Sytravon; conditions: phospho-rpS6 immunofluorescence/PI, 24 h; series mostly up to 38.3 µM; activity change, negative = inhibition: at the top concentration;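 note: plate controls were DMSO for no effect and rapamycin for full effect; nearly all actives have a fitted effect of over 50% in size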
Summary of the method: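 Compounds act on Tsc2-/-, p53-/- fibroblasts carrying an empty vector for 24 h before fixation and dual staining for phospho-S6 and DNA (propidium iodide). Values are percentages of cells above a rapamycin-defined pS6/PI threshold.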

Activity change, negative = inhibition, inactive:
CCCc1nnc(NC(=O)CSc2nnc3c4ccccc4n(CC)c3n2)s1 -1.46%
COCCn1c(C)cc(O)c(C(c2cccc(F)c2)N2CCN(c3ccccc3)CC2)c1=O (configuration not stated) -9.2%
CCc1cccc(C)c1NC(=O)c1cc(CN2CCCC2)on1 1.07%
CC(C)NC(=O)C1CCCN(S(=O)(=O)c2ccc3c(ccn3C)c2)C1 (configuration not stated) 4.64%
Cc1ccc(OCCCC(=O)Nc2sc3c(c2C(N)=O)CCC(C)C3)cc1 (configuration not stated) -4.2%
COc1ccc(N(CC(=O)N2CCN(c3cccc(Cl)c3)CC2)S(=O)(=O)c2c(C)noc2C)cc1 -11.6%
CCOc1ccc(C(=O)N2CC(=O)Nc3ccc(F)cc3C2c2ccc(F)cc2)cc1 (configuration not stated) 1.73%
COc1ccc(-c2oc3ncn4nc(COc5ccc(Cl)cc5)nc4c3c2-c2ccc(OC)cc2)cc1 7.71%
CCc1nnc2c(Nc3cc(OC)c(Cl)cc3OC)nc3ccccc3n12 -0.843%
O=C(Nc1ccc2oc(-c3cccc4c(Br)cccc34)nc2c1)c1cccc(Cl)c1 -7.65%
CC(C)(C)C1CCc2c(sc(NC(=O)c3cc(-c4ccc(F)cc4)on3)c2C#N)C1 (configuration not stated) -17.2%
CCC(C(=O)NCCc1ccc(OC)c(OC)c1)n1nc(C)c2sc3ccccc3c2c1=O (configuration not stated) -6.44%
Cc1cc(C)cc(-n2ccn3cnnc3c2=O)c1 -19.6%
Cc1ccc(OCC(=O)OCc2cc(=O)n3nc(C4CC4)sc3n2)cc1C 0.104%
CCCN(c1ccccc1F)S(=O)(=O)c1cc(-c2cc(C)no2)ccc1C -10.6%
CSc1cccc(Nc2cc(C(=O)NC3CCCCC3)c3ccccc3n2)c1 -17.5%
CCc1ccc2occ(CC(=O)Nc3c(C(=O)c4ccc(F)cc4)oc4ccccc34)c2c1 0.683%
Cn1nc(-c2ccccc2)c(-c2ccccc2)c(C(=O)Nc2ccccc2C(N)=O)c1=O -5.82%
CN(C)c1ccc(-c2nc3ccc(Cl)cn3c2Nc2ccc3c(c2)OCCO3)cc1 0.029%
CCCN(CCC)c1cc(C)nc2nc(-c3ccc(C(C)(C)C)cc3)nn12 2.63%
Cc1cc(C)cc(N2C(=O)CSC23C(=O)N(CC(N)=O)c2ccccc23)c1 (configuration not stated) 0.561%
CCOCCCNC(=O)Cn1ncc2c([nH]c3ccc(C)cc32)c1=O 1.03%
Cc1ccc(C)c(N2CCN(C3(c4ccccc4)C(=O)c4ccccc4C3=O)CC2)c1 14.6%
COCCN(Cc1ccc(C)c(Br)c1)S(=O)(=O)c1ccc2[nH]c(=O)ccc2c1 -0.181%
CCOC(=O)c1ccc(NC(=O)c2cc(=O)c3ccc(C)c(C)c3o2)cc1 2.89%
CC(=O)N1CCc2cc(Br)cc(S(=O)(=O)CCC(=O)N3CCN(c4cccc(C)c4C)CC3)c21 -10.4%
CCc1ccccc1NC(=O)N1CCN(Cc2nc3ccc(C)cc3o2)CC1 0%
